# Assay results published in the supplement of paper PMC3334620.
# Over roughly 33,000 sequences, “E-score (-0.5 to 0.5)” has its median near -0.053; the highest 2% begin near 0.37. The list shows a part of the results.
# Target: Hap1 (UniProt P0CE41)
# Test: PBM E-score (8-mer binding enrichment) (E-score (-0.5 to 0.5)); higher = stronger / more preferred TF binding; most listed sequences are background and not binding sites
# Conditions: protein concentration: 200 nM; construct: GST-DNA-binding domain
# Method: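 Universal 'all 10-mer' protein binding microarrays (Agilent AMADID 015681) probed with GST-tagged S. cerevisiae TFs (full-length or DBD) made by in vitro transcription/translation (PURExpress), about 100-200 nM. Bound TF was detected with fluorescent anti-GST. Each ungapped 8-mer (which stands for itself and its reverse complement) is scored by the PBM enrichment score (E-score), a modified Wilcoxon-Mann-Whitney statistic from -0.5 to +0.5, computed with the Universal PBM Analysis Suite. Scale: above 0.35 generally sequence-specific binding.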
# Chain of UniProt P0CE41 (P0CE41 whole entry): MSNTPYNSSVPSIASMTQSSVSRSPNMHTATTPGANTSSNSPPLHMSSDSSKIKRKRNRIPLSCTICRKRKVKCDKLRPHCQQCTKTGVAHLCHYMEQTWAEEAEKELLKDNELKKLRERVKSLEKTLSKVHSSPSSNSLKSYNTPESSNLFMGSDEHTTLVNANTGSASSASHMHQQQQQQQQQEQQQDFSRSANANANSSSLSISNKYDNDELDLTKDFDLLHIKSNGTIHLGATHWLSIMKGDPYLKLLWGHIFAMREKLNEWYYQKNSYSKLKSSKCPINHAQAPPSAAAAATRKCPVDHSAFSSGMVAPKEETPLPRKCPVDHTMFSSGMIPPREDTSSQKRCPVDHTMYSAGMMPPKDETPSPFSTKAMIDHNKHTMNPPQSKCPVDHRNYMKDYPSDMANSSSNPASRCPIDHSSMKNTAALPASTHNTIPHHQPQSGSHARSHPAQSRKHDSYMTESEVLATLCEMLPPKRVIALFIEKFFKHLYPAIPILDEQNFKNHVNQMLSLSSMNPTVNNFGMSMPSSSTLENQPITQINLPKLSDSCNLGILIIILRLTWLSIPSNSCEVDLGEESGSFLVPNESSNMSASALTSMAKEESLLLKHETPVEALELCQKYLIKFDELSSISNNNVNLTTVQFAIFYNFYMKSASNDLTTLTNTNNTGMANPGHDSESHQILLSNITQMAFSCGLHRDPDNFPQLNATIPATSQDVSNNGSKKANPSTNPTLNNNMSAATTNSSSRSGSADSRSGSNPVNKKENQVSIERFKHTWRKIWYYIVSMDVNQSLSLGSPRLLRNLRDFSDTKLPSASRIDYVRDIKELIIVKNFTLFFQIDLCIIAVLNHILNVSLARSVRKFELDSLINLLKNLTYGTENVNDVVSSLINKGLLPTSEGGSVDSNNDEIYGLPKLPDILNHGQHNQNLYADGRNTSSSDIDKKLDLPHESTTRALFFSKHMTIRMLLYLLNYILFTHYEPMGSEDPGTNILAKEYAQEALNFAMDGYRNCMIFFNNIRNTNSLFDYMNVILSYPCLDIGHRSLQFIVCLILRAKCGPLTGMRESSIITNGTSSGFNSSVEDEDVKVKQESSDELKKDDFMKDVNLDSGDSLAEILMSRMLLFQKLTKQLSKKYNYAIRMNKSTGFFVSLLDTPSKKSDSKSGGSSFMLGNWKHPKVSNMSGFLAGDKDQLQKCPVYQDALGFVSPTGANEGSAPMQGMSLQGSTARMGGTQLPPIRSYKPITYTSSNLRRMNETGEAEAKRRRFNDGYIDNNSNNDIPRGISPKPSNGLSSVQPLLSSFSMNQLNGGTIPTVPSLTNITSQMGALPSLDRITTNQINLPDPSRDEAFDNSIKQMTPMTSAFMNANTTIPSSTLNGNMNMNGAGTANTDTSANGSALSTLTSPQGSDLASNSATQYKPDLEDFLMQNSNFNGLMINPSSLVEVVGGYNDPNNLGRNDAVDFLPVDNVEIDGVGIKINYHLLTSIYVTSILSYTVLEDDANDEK
row,Sequence,PBM E-score
1,CTAGACAG,-0.147
2,CGTTCTAG,-0.186
3,ACTAGTAC,-0.173
4,GAACGTAA,-0.0339
5,CCCTAACA,-0.0704
6,AAGCTGTC,-0.242
7,GAGTCTGC,-0.297
8,CAGCCTTC,-0.236
9,GTACTGGA,-0.166
10,ACGTTGGA,-0.228
11,AGTCCCGC,0.0875
12,AACGAGAT,-0.0517
13,AGGCCCTC,-0.0634
14,CCAAGTAC,-0.217
15,AGAACGTC,-0.24
16,GATTCTCA,-0.0639
17,ACCTGCGC,0.142
18,AGGGACGC,-0.301
19,AGGCATCG,-0.053
20,AAAACGCC,0.173
21,GAGGGCCA,-0.114
22,AGACTGGC,-0.302
23,CTGTTGCA,-0.0203
24,GCTATCTA,-0.0267
25,ACCTCTTC,0.024

row,Sequence,PBM E-score
1,GGCTTACC,0.0444
2,CTTCACTC,0.0238
3,AAAACACT,-0.0999
4,CGTTAAGC,0.163
5,CGGTATAA,0.35
6,AACAGATT,-0.0582
7,CGGGTTTC,0.331
8,AAGCCGTG,0.0593
9,AGGCCTAC,-0.182
10,ATATCCTG,-0.0282
11,CGGTTAAC,0.203
12,CATCGTTA,-0.23
13,GACCTCAC,-0.138
14,TCCCAGCA,0.00066
15,CATTGTGG,-0.101
16,ATTCATTA,-0.0445
17,CGGAAACC,0.314
18,ACAAATGC,-0.0549
19,AGAAAACA,-0.132
20,AAAGGACA,-0.00426
21,TAGCCGCA,0.0768
22,GTCATGGA,-0.0988
23,GTAAAGAC,0.0128
24,CACTGAGC,-0.201
25,GTGAGAAC,-0.245

row,Sequence,PBM E-score
1,AGCAACCC,-0.111
2,ATTAATTC,0.282
3,AGGGATCA,-0.135
4,CCCTCAAA,-0.116
5,AACGGGGT,0.188
6,GAAGCGAA,-0.0351
7,ATGATTAA,-0.0671
8,TCACACGA,-0.16
9,ACAGACTG,-0.256
10,ACATTCGT,-0.249
11,AGTATCGG,0.354
12,GCCCTGAC,-0.328
13,TACACTGA,-0.183
14,CACCTATA,-0.24
15,GACGGTAA,0.213
16,AGACGTCG,-0.0747
17,CTCCAATA,0.0121
18,CAATTAGG,0.0295
19,ACAAAGGA,0.0364
20,ATCGGCCG,0.443
21,ACTCTTAG,-0.289
22,GATCTCCA,-0.0648
23,ATCCGCCA,0.181
24,GATATCGA,0.159
25,GAACCAAC,-0.096

row,Sequence,PBM E-score
1,ACGTTCAT,-0.299
2,AAGAATCT,-0.116
3,GACACCCA,-0.113
4,GGGCCAGA,-0.00391
5,AGGTCGAT,0.0775
6,GGCTTCCC,-0.113
7,GATACGAC,0.03
8,GAACAGGA,-0.126
9,AGTGATAC,-0.0775
10,ATGTCTAA,-0.201
11,CCTCCACA,-0.199
12,CAAGTTGC,0.0556
13,GTGCCTTA,-0.0972
14,AGTACCTC,-0.216
15,GTTTAACA,-0.124
16,CAAACGCC,0.178
17,CAGACGAC,-0.19
18,ACGTTAGA,-0.114
19,AAGTCACA,-0.168
20,CGCCGTTA,0.291
21,GGAATGAC,0.00539
22,GGTTCCCA,-0.121
23,CCCAACAG,-0.328
24,ATAACCAC,0.0206
25,GTCACGAC,-0.118

row,Sequence,PBM E-score
1,AAATCAGT,0.0706
2,ATTGGAGC,-0.137
3,AGCTGCAA,-0.179
4,ACCGACTA,0.23
5,CGATTTGA,-0.143
6,GACCCCGA,0.285
7,GGGTGGAC,0.132
8,GAACTCCC,-0.0134
9,GGGCCTCA,0.117
10,GGAGCTTA,0.0466
11,ACTTTATC,0.0432
12,GGGATAAC,0.185
13,AATAGGCT,-0.125
14,AAGACCCG,0.281
15,CAAATGCC,0.0155
16,CCGAGCGA,0.36
17,CAGCGCCC,-0.14
18,CTAATTGC,0.145
19,CCTGTTGC,-0.0461
20,GTCGGCAA,0.143
21,GGGTCTCA,0.0324
22,AAGCCTCA,-0.136
23,TCTCCTAA,-0.235
24,GGTTCCAA,0.14
25,ACAACTAG,0.0211

row,Sequence,PBM E-score
1,AACAGCGC,-0.0575
2,AAACCGTC,0.0507
3,TACTTCGA,0.0527
4,ACGTAAAC,-0.112
5,GGGCTAGA,0.103
6,AATGCTAT,-0.113
7,ACTCCTCC,0.062
8,TCGAAAAA,0.0162
9,AGGCATGA,-0.262
10,ACGTTTCC,-0.0406
11,CGTCCGCA,0.228
12,GATGATTA,0.0802
13,CGCTCCAA,0.0517
14,GTTCTAAA,0.0365
15,CGGAGTTA,0.494
16,TCGAGGAA,-0.207
17,CCCCGAGA,0.319
18,AACACTTG,-0.141
19,GCCTACAA,-0.0461
20,ACTGCACG,-0.0422
21,CGCTCGTC,-0.118
22,ATCTTCCC,0.11
23,CCAAGATC,-0.0337
24,GTCAATCA,-0.0909
25,AAATGTCT,-0.0935

row,Sequence,PBM E-score
1,AATGAGCC,-0.0744
2,GCCCGACA,0.255
3,CGCGTCCG,0.242
4,ACGATGAC,-0.0904
5,AACCGATG,0.193
6,AGAAGCTC,-0.0716
7,CATAAGAG,-0.0417
8,AACGGTGG,-0.033
9,AGAGAGGG,-0.205
10,CATGCAGC,-0.164
11,GGAGTGCC,0.102
12,AAAGCTGC,-0.0753
13,ACCGGGCA,0.288
14,ATGCCTCG,0.0155
15,TAGGTGGA,-0.326
16,CCATATAG,-0.144
17,GGATCATA,0.0799
18,AAATATAC,0.0145
19,CGACCAAA,0.0382
20,CGTATGGA,0.1
21,AACTAGTT,-0.15
22,GTTCTCCA,-0.0693
